Publication PMC4336329 (PLoS ONE, 2015)
Hit rate of the full screen: of about 310,000 compounds, about 2,200 (0.71%) showed an effect of 50% or more. Effects have a minus sign here. This is one part of the list.

Target: human ether-à-go-go-related gene (hERG) potassium channel (human, UniProt Q12809)
Assay: primary screen, population patch clamp on CHO cells stably expressing hERG

Chain of human ether-à-go-go-related gene (hERG) potassium channel (Q12809 whole entry, looked up): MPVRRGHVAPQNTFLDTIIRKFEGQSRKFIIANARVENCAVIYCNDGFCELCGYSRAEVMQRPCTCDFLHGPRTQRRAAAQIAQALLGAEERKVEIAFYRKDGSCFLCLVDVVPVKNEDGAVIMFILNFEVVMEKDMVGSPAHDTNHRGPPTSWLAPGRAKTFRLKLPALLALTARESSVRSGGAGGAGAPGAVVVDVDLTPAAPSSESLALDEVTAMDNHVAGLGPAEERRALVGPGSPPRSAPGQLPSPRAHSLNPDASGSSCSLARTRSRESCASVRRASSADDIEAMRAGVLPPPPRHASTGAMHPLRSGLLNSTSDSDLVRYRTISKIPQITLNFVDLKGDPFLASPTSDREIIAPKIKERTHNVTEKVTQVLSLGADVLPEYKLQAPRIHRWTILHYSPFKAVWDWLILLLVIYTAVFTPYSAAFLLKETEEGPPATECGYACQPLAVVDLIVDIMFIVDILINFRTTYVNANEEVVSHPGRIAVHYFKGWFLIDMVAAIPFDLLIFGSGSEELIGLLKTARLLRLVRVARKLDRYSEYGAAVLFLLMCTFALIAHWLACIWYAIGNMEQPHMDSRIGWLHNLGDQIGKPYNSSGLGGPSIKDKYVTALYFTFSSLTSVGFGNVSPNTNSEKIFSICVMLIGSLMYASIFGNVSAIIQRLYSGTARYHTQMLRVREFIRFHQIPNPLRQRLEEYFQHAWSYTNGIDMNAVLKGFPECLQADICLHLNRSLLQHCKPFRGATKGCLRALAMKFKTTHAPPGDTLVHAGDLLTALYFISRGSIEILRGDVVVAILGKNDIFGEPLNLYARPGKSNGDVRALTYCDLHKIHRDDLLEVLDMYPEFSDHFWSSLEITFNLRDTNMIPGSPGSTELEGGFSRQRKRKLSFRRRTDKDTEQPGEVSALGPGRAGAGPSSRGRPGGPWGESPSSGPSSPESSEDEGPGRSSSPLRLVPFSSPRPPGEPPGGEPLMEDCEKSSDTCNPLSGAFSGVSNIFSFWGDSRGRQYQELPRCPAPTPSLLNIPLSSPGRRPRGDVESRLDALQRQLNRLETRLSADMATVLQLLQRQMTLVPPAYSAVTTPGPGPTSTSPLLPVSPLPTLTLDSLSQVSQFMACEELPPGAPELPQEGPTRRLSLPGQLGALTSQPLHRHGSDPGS

Row | SMILES | hERG current change (%, negative = inhibition) at 1uM [%]
1 | CCCCCCn1c(CN2CCN(C)CC2)nc2c1c(=O)n(C)c(=O)n2C | -41.8
2 | O=C(COc1ccc(/C=N/NS(=O)(=O)c2ccccc2)cc1)N1CCOCC1 | 10.6
3 | O=c1ccc(-c2ccc(S(=O)(=O)Nc3cccc(Br)c3)o2)n[nH]1 | 14.2
4 | CCOC(=O)C1CCN(C(=O)CN2C(=O)CSc3ccc(S(=O)(=O)N4CCOCC4)cc32)CC1 | 2.95
5 | Cc1ccc(CNc2nc3ccccc3n2C)o1 | 11
6 | Cc1ccc(C2(c3noc(CN4CCC(C(=O)N5CCOCC5)CC4)n3)CCCC2)cc1 | 7.32
7 | CN(C)c1ccc(NC(=O)c2cccc([N+](=O)[O-])c2)c2ccccc12 | 6.21
8 | COC(=O)C[n+]1cccc2ccccc21.[Cl-] | 18.8
9 | CC1CCc2c(sc(NS(=O)(=O)c3ccccc3)c2C(=O)OC(C)C)C1 (centres unmarked) | 9.63
10 | COc1ccc(NC(=O)Cn2cnc3c(cnn3-c3ccc(C)c(C)c3)c2=O)c(OC)c1 | 0.499
11 | O=C(CSc1ccc(-c2ccco2)nn1)N1CCCCCC1 | 4.91
12 | CC1CCCC(C)N1CCNC(=O)CCc1nnc2n(Cc3ccccc3)c(=O)c3ccccc3n12 (centres unmarked) | -11.2
13 | NC(=O)C(=O)NN=C1CCC(c2ccccc2)CC1 (centres unmarked) | 12.8
14 | CCC(=O)N1CCc2cc(S(=O)(=O)CCC(=O)N3CCN(c4ccc(F)cc4)CC3)ccc21 | 5.02
15 | COC(=O)CCC(=O)NC1CC(C)(C)Cc2c1cnn2-c1ccc(F)cc1 (centres unmarked) | -8.41
16 | COc1ccc(Cl)cc1N(C(C)C(=O)O)S(C)(=O)=O (centres unmarked) | 10
17 | COc1cc(F)cc(C2=CC(=O)C[C@H](c3ccc(F)cc3)C2)c1 | 8.53
18 | COc1ccc(NC(=O)[C@@H]2CCCN2C(=O)[C@@H]2Cc3ccccc3CN2C(=O)OC(C)(C)C)cc1 | 15.3
19 | NC(=O)c1cccnc1 | 17.6
20 | C/C(=N\NC(=O)C(C)Oc1ccc([N+](=O)[O-])cc1)c1ccccn1 (centres unmarked) | 3.15
21 | Cc1ccc(C)c(OCc2cc(C(=O)N3CC[C@H](O)C3)no2)c1 | 16.8
22 | CCc1nc2ccc(C(=O)NCCc3ccco3)cc2nc1CC | 22.3

Row | SMILES | hERG current change (%, negative = inhibition) at 1uM [%]
23 | Cc1ccc(P(=O)(CC(=O)O)c2ccc(C)cc2)cc1 | -6.62
24 | COc1ccc(-c2ccc(SCC(=O)NCC3CCCO3)nn2)cc1OC (centres unmarked) | 15.9
25 | O=C(CNC(=O)c1cccc(Cl)c1)N/N=C/c1cccnc1 | 16.3
26 | COc1ccc(S(=O)(=O)N(Cc2ccccc2)Cc2nc(-c3ccccc3)no2)cc1 | 6.95
27 | CCc1noc(C)c1C(=O)N1CCCC(C(=O)c2ccc(OC)c(F)c2)C1 (centres unmarked) | 5.78
28 | O=C(Nc1nccs1)c1ccc(S(=O)(=O)NCc2cccs2)cc1 | 0.141
29 | CN(C)CCCNC(=O)/C=C/c1ccc(OCc2c(F)cccc2Cl)cc1 | -0.257
30 | COc1ccc(NC(=O)CN2CCC(C(=O)c3ccc(C)cc3)CC2)c(OC)c1 | -0.246
31 | O=C(CCNc1n[nH]c(=O)[nH]c1=O)N/N=C\c1ccc(Br)cc1 | 1.58
32 | Cn1cccc1/C=C1\CCC/C(=C\c2cccn2C)C1=O | 2.7
33 | O=C(Nc1ccc(Cl)cc1C(=O)Nc1ccncc1)c1ccco1 | -13
34 | CCC(C)(C)NC(=O)c1ccc2c(c1)N(CC(=O)OC)C(=O)C(C)(C)O2 | -8.97
35 | O=C(C1=C(O)C(=O)N(CCN2CCOCC2)C1c1ccccn1)c1cccs1 (centres unmarked) | 15
36 | CC(C)CC(c1nnnn1C(C)C)N1CCN(c2cccc(Cl)c2)CC1 (centres unmarked) | 11.1
37 | CCOC(=O)CC(=O)Nc1ccc(C)cc1 | 6.4
38 | O=C(Nc1cccc([N+](=O)[O-])c1)c1cc(S(=O)(=O)Nc2ccccn2)ccc1Cl | -6.58
39 | CC(C)Cc1nnc(NC(=O)C2CCN(C(=O)c3ccc(F)cc3)CC2)s1 | -3.88
40 | Cc1nc(CN(C)C(=O)CC2C(=O)NCCN2Cc2ccc(F)cc2)cs1 (centres unmarked) | 15.5
41 | O=C(Cn1c(=O)oc2cc(S(=O)(=O)NCc3ccccc3)ccc21)NCc1ccco1 | 12.2
42 | CC(C)CNC(=O)Cn1nc(C(F)(F)F)c2c1CCCC2 | 4.01
43 | CC(C)(C)c1ccc(C(=O)Nc2ccc3c(c2)C(=O)NC3=O)cc1 | 17
44 | COc1cc([C@@H]2CC=C(C(=O)O)[C@H](c3ccccc3)N2S(=O)(=O)c2ccc(C)cc2)cc(OC)c1OC | 17
